We go through eight proteins from the supplement of paper PMC11876631.

B1: prmC L28A (protein)
chain: MEYQHWLREAISQLQASESPRRDAEILAEHVTGRGRTFILAFGETQLTDEQCQQLDALLTRRRDGEPIAHLTGVREFWSLPLFVSPATLIPRPDTECLVEQALARLPEQPCRILDLGTGTGAIALALASERPDCEIIAVDRMPDAVSLAQRNAQHLAIKNIHILQSDWFSALAGQQFAMIVSNPPYIDEQDPHLQQGDVRFEPLTALVAADSGMADIVHIIEQSRNALVSGGFLLLEHGWQQGEAVRQAFILAGYHDVETCRDYGDNERVTLGRYYQ
B2: prmC L28Q (protein)
chain: MEYQHWLREAISQLQASESPRRDAEILQEHVTGRGRTFILAFGETQLTDEQCQQLDALLTRRRDGEPIAHLTGVREFWSLPLFVSPATLIPRPDTECLVEQALARLPEQPCRILDLGTGTGAIALALASERPDCEIIAVDRMPDAVSLAQRNAQHLAIKNIHILQSDWFSALAGQQFAMIVSNPPYIDEQDPHLQQGDVRFEPLTALVAADSGMADIVHIIEQSRNALVSGGFLLLEHGWQQGEAVRQAFILAGYHDVETCRDYGDNERVTLGRYYQ
B3: prmC L28W (protein)
chain: MEYQHWLREAISQLQASESPRRDAEILWEHVTGRGRTFILAFGETQLTDEQCQQLDALLTRRRDGEPIAHLTGVREFWSLPLFVSPATLIPRPDTECLVEQALARLPEQPCRILDLGTGTGAIALALASERPDCEIIAVDRMPDAVSLAQRNAQHLAIKNIHILQSDWFSALAGQQFAMIVSNPPYIDEQDPHLQQGDVRFEPLTALVAADSGMADIVHIIEQSRNALVSGGFLLLEHGWQQGEAVRQAFILAGYHDVETCRDYGDNERVTLGRYYQ
B4: ppc L778P (protein)
chain: MNEQYSALRSNVSMLGKVLGETIKDALGEHILERVETIRKLSKSSRAGNDANRQELLTTLQNLSNDELLPVARAFSQFLNLANTAEQYHSISPKGEAASNPEVIARTLRKLKNQPELSEDTIKKAVESLSLELVLTAHPTEITRRTLIHKMVEVNACLKQLDNKDIADYEHNQLMRRLRQLIAQSWHTDEIRKLRPSPVDEAKWGFAVVENSLWQGVPNYLRELNEQLEENLGYKLPVEFVPVRFTSWMGGDRDGNPNVTADITRHVLLLSRWKATDLFLKDIQVLVSELSMVEATPELLALVGEEGAAEPYRYLMKNLRSRLMATQAWLEARLKGEELPKPEGLLTQNEELWEPLYACYQSLQACGMGIIANGDLLDTLRRVKCFGVPLVRIDIRQESTRHTEALGELTRYLGIGDYESWSEADKQAFLIRELNSKRPLLPRNWQPSAETREVLDTCQVIAEAPQGSIAAYVISMAKTPSDVLAVHLLLKEAGIGFAMPVAPLFETLDDLNNANDVMTQLLNIDWYRGLIQGKQMVMIGYSDSAKDAGVMAASWAQYQAQDALIKTCEKAGIELTLFHGRGGSIGRGGAPAHAALLSQPPGSLKGGLRVTEQGEMIRFKYGLPEITVSSLSLYTGAILEANLLPPPEPKESWRRIMDELSVISCDVYRGYVRENKDFVPYFRSATPEQELGKLPLGSRPAKRRPTGGVESLRAIPWIFAWTQNRLMLPAWLGAGTALQKVVEDGKQSELEAMCRDWPFFSTRLGMLEMVFAKADLWPAEYYDQRLVDKALWPLGKELRNLQEEDIKVVLAIANDSHLMADLPWIAESIQLRNIYTDPLNVLQAELLHRSRQAEKEGQEPDPRVEQALMVTIAGIAAGMRNTG
B5: ppc I718Q (protein)
chain: MNEQYSALRSNVSMLGKVLGETIKDALGEHILERVETIRKLSKSSRAGNDANRQELLTTLQNLSNDELLPVARAFSQFLNLANTAEQYHSISPKGEAASNPEVIARTLRKLKNQPELSEDTIKKAVESLSLELVLTAHPTEITRRTLIHKMVEVNACLKQLDNKDIADYEHNQLMRRLRQLIAQSWHTDEIRKLRPSPVDEAKWGFAVVENSLWQGVPNYLRELNEQLEENLGYKLPVEFVPVRFTSWMGGDRDGNPNVTADITRHVLLLSRWKATDLFLKDIQVLVSELSMVEATPELLALVGEEGAAEPYRYLMKNLRSRLMATQAWLEARLKGEELPKPEGLLTQNEELWEPLYACYQSLQACGMGIIANGDLLDTLRRVKCFGVPLVRIDIRQESTRHTEALGELTRYLGIGDYESWSEADKQAFLIRELNSKRPLLPRNWQPSAETREVLDTCQVIAEAPQGSIAAYVISMAKTPSDVLAVHLLLKEAGIGFAMPVAPLFETLDDLNNANDVMTQLLNIDWYRGLIQGKQMVMIGYSDSAKDAGVMAASWAQYQAQDALIKTCEKAGIELTLFHGRGGSIGRGGAPAHAALLSQPPGSLKGGLRVTEQGEMIRFKYGLPEITVSSLSLYTGAILEANLLPPPEPKESWRRIMDELSVISCDVYRGYVRENKDFVPYFRSATPEQELGKLPLGSRPAKRRPTGGVESLRAIPWQFAWTQNRLMLPAWLGAGTALQKVVEDGKQSELEAMCRDWPFFSTRLGMLEMVFAKADLWLAEYYDQRLVDKALWPLGKELRNLQEEDIKVVLAIANDSHLMADLPWIAESIQLRNIYTDPLNVLQAELLHRSRQAEKEGQEPDPRVEQALMVTIAGIAAGMRNTG
B6: ppc L158Q (protein)
chain: MNEQYSALRSNVSMLGKVLGETIKDALGEHILERVETIRKLSKSSRAGNDANRQELLTTLQNLSNDELLPVARAFSQFLNLANTAEQYHSISPKGEAASNPEVIARTLRKLKNQPELSEDTIKKAVESLSLELVLTAHPTEITRRTLIHKMVEVNACQKQLDNKDIADYEHNQLMRRLRQLIAQSWHTDEIRKLRPSPVDEAKWGFAVVENSLWQGVPNYLRELNEQLEENLGYKLPVEFVPVRFTSWMGGDRDGNPNVTADITRHVLLLSRWKATDLFLKDIQVLVSELSMVEATPELLALVGEEGAAEPYRYLMKNLRSRLMATQAWLEARLKGEELPKPEGLLTQNEELWEPLYACYQSLQACGMGIIANGDLLDTLRRVKCFGVPLVRIDIRQESTRHTEALGELTRYLGIGDYESWSEADKQAFLIRELNSKRPLLPRNWQPSAETREVLDTCQVIAEAPQGSIAAYVISMAKTPSDVLAVHLLLKEAGIGFAMPVAPLFETLDDLNNANDVMTQLLNIDWYRGLIQGKQMVMIGYSDSAKDAGVMAASWAQYQAQDALIKTCEKAGIELTLFHGRGGSIGRGGAPAHAALLSQPPGSLKGGLRVTEQGEMIRFKYGLPEITVSSLSLYTGAILEANLLPPPEPKESWRRIMDELSVISCDVYRGYVRENKDFVPYFRSATPEQELGKLPLGSRPAKRRPTGGVESLRAIPWIFAWTQNRLMLPAWLGAGTALQKVVEDGKQSELEAMCRDWPFFSTRLGMLEMVFAKADLWLAEYYDQRLVDKALWPLGKELRNLQEEDIKVVLAIANDSHLMADLPWIAESIQLRNIYTDPLNVLQAELLHRSRQAEKEGQEPDPRVEQALMVTIAGIAAGMRNTG
B7: ppc L158W (protein)
chain: MNEQYSALRSNVSMLGKVLGETIKDALGEHILERVETIRKLSKSSRAGNDANRQELLTTLQNLSNDELLPVARAFSQFLNLANTAEQYHSISPKGEAASNPEVIARTLRKLKNQPELSEDTIKKAVESLSLELVLTAHPTEITRRTLIHKMVEVNACWKQLDNKDIADYEHNQLMRRLRQLIAQSWHTDEIRKLRPSPVDEAKWGFAVVENSLWQGVPNYLRELNEQLEENLGYKLPVEFVPVRFTSWMGGDRDGNPNVTADITRHVLLLSRWKATDLFLKDIQVLVSELSMVEATPELLALVGEEGAAEPYRYLMKNLRSRLMATQAWLEARLKGEELPKPEGLLTQNEELWEPLYACYQSLQACGMGIIANGDLLDTLRRVKCFGVPLVRIDIRQESTRHTEALGELTRYLGIGDYESWSEADKQAFLIRELNSKRPLLPRNWQPSAETREVLDTCQVIAEAPQGSIAAYVISMAKTPSDVLAVHLLLKEAGIGFAMPVAPLFETLDDLNNANDVMTQLLNIDWYRGLIQGKQMVMIGYSDSAKDAGVMAASWAQYQAQDALIKTCEKAGIELTLFHGRGGSIGRGGAPAHAALLSQPPGSLKGGLRVTEQGEMIRFKYGLPEITVSSLSLYTGAILEANLLPPPEPKESWRRIMDELSVISCDVYRGYVRENKDFVPYFRSATPEQELGKLPLGSRPAKRRPTGGVESLRAIPWIFAWTQNRLMLPAWLGAGTALQKVVEDGKQSELEAMCRDWPFFSTRLGMLEMVFAKADLWLAEYYDQRLVDKALWPLGKELRNLQEEDIKVVLAIANDSHLMADLPWIAESIQLRNIYTDPLNVLQAELLHRSRQAEKEGQEPDPRVEQALMVTIAGIAAGMRNTG
B8: ppc L158A (protein)
chain: MNEQYSALRSNVSMLGKVLGETIKDALGEHILERVETIRKLSKSSRAGNDANRQELLTTLQNLSNDELLPVARAFSQFLNLANTAEQYHSISPKGEAASNPEVIARTLRKLKNQPELSEDTIKKAVESLSLELVLTAHPTEITRRTLIHKMVEVNACAKQLDNKDIADYEHNQLMRRLRQLIAQSWHTDEIRKLRPSPVDEAKWGFAVVENSLWQGVPNYLRELNEQLEENLGYKLPVEFVPVRFTSWMGGDRDGNPNVTADITRHVLLLSRWKATDLFLKDIQVLVSELSMVEATPELLALVGEEGAAEPYRYLMKNLRSRLMATQAWLEARLKGEELPKPEGLLTQNEELWEPLYACYQSLQACGMGIIANGDLLDTLRRVKCFGVPLVRIDIRQESTRHTEALGELTRYLGIGDYESWSEADKQAFLIRELNSKRPLLPRNWQPSAETREVLDTCQVIAEAPQGSIAAYVISMAKTPSDVLAVHLLLKEAGIGFAMPVAPLFETLDDLNNANDVMTQLLNIDWYRGLIQGKQMVMIGYSDSAKDAGVMAASWAQYQAQDALIKTCEKAGIELTLFHGRGGSIGRGGAPAHAALLSQPPGSLKGGLRVTEQGEMIRFKYGLPEITVSSLSLYTGAILEANLLPPPEPKESWRRIMDELSVISCDVYRGYVRENKDFVPYFRSATPEQELGKLPLGSRPAKRRPTGGVESLRAIPWIFAWTQNRLMLPAWLGAGTALQKVVEDGKQSELEAMCRDWPFFSTRLGMLEMVFAKADLWLAEYYDQRLVDKALWPLGKELRNLQEEDIKVVLAIANDSHLMADLPWIAESIQLRNIYTDPLNVLQAELLHRSRQAEKEGQEPDPRVEQALMVTIAGIAAGMRNTG

± gives the standard deviation of the averaged measurements. Laboratory Escherichia coli strains with one amino-acid change in an essential protein, pooled on minimal glucose agar with carbenicillin or gentamicin at twice the control MIC (plus kanamycin and chloramphenicol for the plasmids), 48 h. Fold change of barcode share against drug-free plates; higher = less susceptible. Active = above 20 in both replicates (the paper's putatively resistant). '<' = one read or none on drug, '>' = one read or none on a drug-free plate. Shares are relative, so most strains fall below 1 when a few take over. Listed are strains with at least 15 reads on both drug-free plates, and hits; most hits rest on fewer reference reads. Replicate rank correlation about 0.5. Edits are read from barcodes.

The target of one series is Escherichia coli (laboratory strain). Kind of series: barcode share on antibiotic plates over drug-free plates; higher = less susceptible. To be noted: antibiotic: carbenicillin; 2× MIC (3.1 µg/mL). As for the experimental part:
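A pool of E. coli strains, each edited to carry one amino-acid change in an essential protein, was grown for 48 h on minimal glucose agar with or without antibiotic; strain barcodes were sequenced; mean of two replicates.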
Turning to B1, the “fold change of barcode share” value came out at 0.3 ± 0.026.

As for B2, the “fold change of barcode share” value came to 0.345 ± 0.056.

As to B3, the “fold change of barcode share” value was found to be 0.343 ± 0.095.

Consider B4, for which the “fold change of barcode share” value stood at 3.41 ± 0.23.

For B5, the “fold change of barcode share” value stood at 0.301 ± 0.088.

Turning to B6, the “fold change of barcode share” value amounted to 0.616 ± 0.015.

For B7, the “fold change of barcode share” value amounted to 1.85 ± 0.35.

B8: the “fold change of barcode share” value was 2.47 ± 0.51.

The series is the same for the next values; noted with them: antibiotic: gentamicin; 2× MIC (MIC 0.45 µg/mL).
As to B1, the “fold change of barcode share” value was determined as 0.00387 ± 0.003.

As to B2, the “fold change of barcode share” value was determined as 0.00333 ± 0.0018.

Take B3: the “fold change of barcode share” value was determined as 0.00996 ± 0.0037.

For the protein B4, the “fold change of barcode share” value amounted to 0.0678 ± 0.043.

As for B5, the “fold change of barcode share” value was less than 0.0088.

Consider B6, for which the “fold change of barcode share” value is less than 0.00436.

With B7, the “fold change of barcode share” value was determined as 0.0307 ± 0.022.

B8: the “fold change of barcode share” value was 0.0215 ± 0.01.
